These binders were tested against T1, biotin-conjugated, recombinant TNF-α produced in E. coli (human, UniProt P01375 77-233, biotin-conjugated (sites not given)) (assay: ELISA: Z-ABD fusion captured on HSA, biotinylated TNF-α 1 µg/ml, signal above threshold).
T1 construct: Research Diagnostics Inc, cat no RDI-301X; also called Biotinylated TNF-α

Binder | binding result
SEQ ID NO 25 (designed binder, not shown: large carriers; small tags and cut ends, Z variant tested as fusion with ABD) VDNKFNKESAHAIGEIANLPNLNGGQLRAFILSLWDDPSQSANLLAEAKKLNDAQAPK | binds
SEQ ID NO 27 (designed binder, not shown: large carriers; small tags and cut ends, Z variant tested as fusion with ABD) VDNKFNKEIVYAPREIFHLPNLNILQQIAFIRSLLDDPSQSANLLAEAKKLNDAQAPK | binds
SEQ ID NO 28 (designed binder, not shown: large carriers; small tags and cut ends, Z variant tested as fusion with ABD) VDNKFNKESNKAPCEIQDLPNLNIDQCIAFIRSLRDDPSQSANLLAEAKKLNDAQAPK | binds
SEQ ID NO 29 (designed binder, not shown: large carriers; small tags and cut ends, Z variant tested as fusion with ABD) VDNKFNKEFHGALREIWKLPNLNVRQAMAFIRSLIDDPSQSANLLAEAKKLNDAQAPK | binds
SEQ ID NO 31 (designed binder, not shown: large carriers; small tags and cut ends, Z variant tested as fusion with ABD) VDNKFNKEMHIALQEIYALPNLNIAQSVAFIRSLVDDPSQSANLLAEAKKLNDAQAPK | binds
SEQ ID NO 33 (designed binder, not shown: large carriers; small tags and cut ends, Z variant tested as fusion with ABD) VDNKFNKESPGALSEIMALPNLNVHQYYAFIRSLLDDPSQSANLLAEAKKLNDAQAPK | binds
SEQ ID NO 34 (designed binder, not shown: large carriers; small tags and cut ends, Z variant tested as fusion with ABD) VDNKFNKESMSAALEITRLPNLNVHQYYAFITSLRDDPSQSANLLAEAKKLNDAQAPK | binds
SEQ ID NO 35 (designed binder, not shown: large carriers; small tags and cut ends, Z variant tested as fusion with ABD) VDNKFNKEFVSAPREIHGLPNLNVTQRMAFIRSLLDDPSQSANLLAEAKKLNDAQAPK | binds
SEQ ID NO 36 (designed binder, not shown: large carriers; small tags and cut ends, Z variant tested as fusion with ABD) VDNKFNKECWMAPKEIYRLPNLNDWQRSAFIRSLCDDPSQSANLLAEAKKLNDAQAPK | binds
SEQ ID NO 37 (designed binder, not shown: large carriers; small tags and cut ends, Z variant tested as fusion with ABD) VDNKFNKEGRGARMEIVCLPNLNWRQTVAFIRSLQDDPSQSANLLAEAKKLNDAQAPK | binds
SEQ ID NO 39 (designed binder, not shown: large carriers; small tags and cut ends, Z variant tested as fusion with ABD) VDNKFNKEVTVAGVEIGQLPNLNLHQYYAFIRSLLDDPSQSANLLAEAKKLNDAQAPK | binds
SEQ ID NO 42 (designed binder, not shown: large carriers; small tags and cut ends, Z variant tested as fusion with ABD) VDNKFNKEGHMAVREIHGLPNLNVAQRMAFIRSLVDDPSQSANLLAEAKKLNDAQAPK | binds
SEQ ID NO 45 (designed binder, not shown: large carriers; small tags and cut ends, Z variant tested as fusion with ABD) VDNKFNKEKLHAAQEIGRLPNLNVHQYYAFITSLSDDPSQSANLLAEAKKLNDAQAPK | binds
SEQ ID NO 46 (designed binder, not shown: large carriers; small tags and cut ends, Z variant tested as fusion with ABD) VDNKFNKEVAAAVGEIGSLPNLNVGQFAAFIRSLWDDPSQSANLLAEAKKLNDAQAPK | binds

Each binder was assayed against T2, Tumor necrosis factor α (human, UniProt P01375 77-233) (assay: SPR (Biacore 2000), multimer amine-coupled to chip, TNF-α injected, 1:1 Langmuir, apparent KD).
T2 construct: The source is not restated there; also called TNF-α

Binder | Kd
His6-(Z00752)4 (designed binder, His6-tagged tetrameric multimer in one chain) MGSSHHHHHHLQVDNKFNKEVVGAMLEIARLPNLNRGQVNAFIWSLADDPSQSANLLAEAKKLNDAQAPKVDNKFNKEVVGAMLEIARLPNLNRGQVNAFIWSLADDPSQSANLLAEAKKLNDAQAPKVDNKFNKEVVGAMLEIARLPNLNRGQVNAFIWSLADDPSQSANLLAEAKKLNDAQAPKVDNKFNKEVVGAMLEIARLPNLNRGQVNAFIWSLADDPSQSANLLAEAKKLNDAQAPKVDC | ~400 nM
His6-(Z00771)4 (designed binder, His6-tagged tetrameric multimer in one chain) MGSSHHHHHHLQVDNKFNKEAYTASLEIANLPNLNMHQYYAFIHSLLDDPSQSANLLAEAKKLNDAQAPKVDNKFNKEAYTASLEIANLPNLNMHQYYAFIHSLLDDPSQSANLLAEAKKLNDAQAPKVDNKFNKEAYTASLEIANLPNLNMHQYYAFIHSLLDDPSQSANLLAEAKKLNDAQAPKVDNKFNKEAYTASLEIANLPNLNMHQYYAFIHSLLDDPSQSANLLAEAKKLNDAQAPKVDC | ~400 nM
His6-(Z00734)4 (designed binder, His6-tagged tetrameric multimer in one chain) MGSSHHHHHHLQVDNKFNKEGHQALVEIFRLPNLNVQQATAFIRSLVDDPSQSANLLAEAKKLNDAQAPKVDNKFNKEGHQALVEIFRLPNLNVQQATAFIRSLVDDPSQSANLLAEAKKLNDAQAPKVDNKFNKEGHQALVEIFRLPNLNVQQATAFIRSLVDDPSQSANLLAEAKKLNDAQAPKVDNKFNKEGHQALVEIFRLPNLNVQQATAFIRSLVDDPSQSANLLAEAKKLNDAQAPKVDC | ~400 nM
